Source: article PMC4336329 (PLoS ONE, 2015)
Hit rate of the full screen: of about 310,000 compounds, about 14,000 (4.5%) showed an effect of 50% or more. The effect is printed as a negative number. This is one part of the list.

target: human ether-à-go-go-related gene (hERG) potassium channel (human, UniProt Q12809); experiment: primary screen, population patch clamp on CHO cells stably expressing hERG
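Further: peak tail current of the secondary pulse compared with the same well before compound.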

human ether-à-go-go-related gene (hERG) potassium channel, sequence (Q12809 whole entry, looked up): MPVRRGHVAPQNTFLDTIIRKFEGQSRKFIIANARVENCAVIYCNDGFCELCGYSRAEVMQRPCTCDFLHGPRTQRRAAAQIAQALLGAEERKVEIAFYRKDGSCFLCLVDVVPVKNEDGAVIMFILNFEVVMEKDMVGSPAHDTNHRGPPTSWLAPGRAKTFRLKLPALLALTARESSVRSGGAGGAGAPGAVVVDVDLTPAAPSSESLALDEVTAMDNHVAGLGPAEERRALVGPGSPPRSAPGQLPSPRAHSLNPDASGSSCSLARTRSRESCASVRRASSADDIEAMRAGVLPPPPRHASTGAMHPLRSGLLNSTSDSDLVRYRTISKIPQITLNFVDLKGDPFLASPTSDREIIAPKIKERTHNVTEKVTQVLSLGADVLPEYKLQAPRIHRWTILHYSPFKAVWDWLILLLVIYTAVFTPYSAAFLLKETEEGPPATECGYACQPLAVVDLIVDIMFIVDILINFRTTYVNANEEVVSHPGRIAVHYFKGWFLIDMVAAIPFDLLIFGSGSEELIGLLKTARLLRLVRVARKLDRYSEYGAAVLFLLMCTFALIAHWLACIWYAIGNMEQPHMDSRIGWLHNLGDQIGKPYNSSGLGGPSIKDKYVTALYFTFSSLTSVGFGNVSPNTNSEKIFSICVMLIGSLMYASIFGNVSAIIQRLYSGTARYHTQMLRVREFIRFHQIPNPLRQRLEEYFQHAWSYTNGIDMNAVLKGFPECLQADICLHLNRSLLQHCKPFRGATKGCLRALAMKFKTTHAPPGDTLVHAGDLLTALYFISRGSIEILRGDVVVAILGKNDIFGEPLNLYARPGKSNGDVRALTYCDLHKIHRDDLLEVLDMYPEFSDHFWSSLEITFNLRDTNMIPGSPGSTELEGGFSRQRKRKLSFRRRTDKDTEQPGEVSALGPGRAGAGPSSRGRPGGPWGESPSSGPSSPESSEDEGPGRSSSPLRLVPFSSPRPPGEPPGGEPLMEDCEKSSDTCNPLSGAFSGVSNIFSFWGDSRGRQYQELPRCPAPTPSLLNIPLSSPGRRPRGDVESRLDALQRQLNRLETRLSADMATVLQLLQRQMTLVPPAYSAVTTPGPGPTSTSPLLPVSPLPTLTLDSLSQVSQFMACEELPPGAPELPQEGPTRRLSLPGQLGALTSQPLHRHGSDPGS

Compound | hERG current change (%, negative = inhibition) at 10uM [%]
Cc1cc(=O)oc2c(C(=O)/C=C/c3ccccc3)c(O)ccc12 | 1.93
COC(=O)C1C(O)C(C)C(O)C(C)/C=C\C=C(/C)C(=O)Nc2c(C)c(OC(C)=O)c3c(c2O)C(=O)C(C)=C2OCOC(=C23)/C(C)=C/C(C)(O)C(O)C(C)C1O (centres unmarked) | 3.92
CCCn1c(N)c(N(CCOC)C(=O)CSCC(=O)Nc2ccc(OC)cc2)c(=O)[nH]c1=O | -30.8
CC(C)NC(=O)Cn1c(SCC(=O)N2CCc3ccccc3C2)nc2ccccc21 | -13.2
O=c1c(C=NCC2CCCO2)c(-c2ccccc2)[nH]n1-c1ccc([N+](=O)[O-])cc1 (centres unmarked) | 7.58
CCC(=O)Nc1c2c(nn1-c1ccccc1)CSC2 | 13.1
Cc1cc(CSC(=N)N)c(CSC(=N)N)cc1C | 5.65
CC(C)(C)c1ccc(CCC(CC(=O)O)CC(=O)O)cc1 | -11.9
C=CCc1ccccc1OCC(=O)N/N=C/c1ccccc1OCC | 7.85
CC(=O)N1CC[n+]2c(-c3ccc([N+](=O)[O-])cc3)csc21.[Br-] | -68.9
O=C(C1CC1)N1CCc2cc(S(=O)(=O)N3CCOCC3)ccc21 | -0.00762
COc1cc(/C=N/NC(=O)CNC(=O)c2ccc3c(c2)OCCO3)ccc1O | 1.98
CC(C)c1ccc(CNC(=O)C2CCCN2S(=O)(=O)c2ccccc2)cc1 (centres unmarked) | -2.57
COc1ccc(C(CNC(=O)c2cccc(S(=O)(=O)Nc3ccccc3Cl)c2)N2CCOCC2)cc1 (centres unmarked) | 9.73
Cc1c(Cl)cccc1NC(=O)COC(=O)CN1C(=O)NC(C)(C)C1=O | -0.465
COCCN1C(=O)N(c2cccc(OC)c2)C(=O)C1CC(=O)Nc1ccc(Cl)cc1 (centres unmarked) | 3.54
CCOC(=O)/C(C#N)=N/Nc1c(C)n(C)n(-c2ccccc2)c1=O | 18.7
COc1cccc(CNc2ccc(F)c(Cl)c2)c1OC | 2.93
CCC(=O)Nc1ccc(NC(=O)c2ccccc2)nc1 | -15.7
CCCS(=O)(=O)C(=C(Nc1ccc(OC)cc1)Nc1ccc(OC)cc1)S(=O)(=O)CCC | -2.24
COc1ccc(C(=O)CC(=O)C(=O)Nc2cccc(C(C)=O)c2)cc1 | 29.9
Cc1cc(=O)oc2c(CN(C)Cc3ccccc3)c(O)ccc12 | -12.6

Compound | hERG current change (%, negative = inhibition) at 10uM [%]
CCOC(=O)/C(=N/Nc1ccc(Cl)cc1)Sc1nnnn1-c1ccc(C)cc1 | 23.3
O=C1C2CCCN2C(c2ccccc2)N1c1ccccn1 (centres unmarked) | 8.79
CCC(C)[C@H](NC(=O)NCc1ccc(S(N)(=O)=O)cc1)C(=O)OC (some centres unmarked) | 3.14
Nc1nc(SCC(=O)NC2CCCC2)[nH]c(=O)c1NC(=O)c1cccs1 | -0.849
CCCC(=O)NC(Oc1ccc(OC)cc1)C(Cl)(Cl)Cl (centres unmarked) | -0.123
CCOc1cccc(C2C(C#N)=C(N)Oc3cc(C)oc(=O)c32)c1OCC (centres unmarked) | 4.23
O=C(c1ccccc1)N1CCN(C(=O)N2CCCCC2)CC1 | 7.37
C=CCN(C(=O)c1ccccn1)C(C(=O)NCc1ccccc1)c1ccccc1F (centres unmarked) | 10.8
C=CCc1ccc(OCCOCCOc2ccc(C)cc2[N+](=O)[O-])c(OC)c1 | -37.8
Cc1cccc(NC(=S)NC2CC3CCCC(C2)N3Cc2cccs2)c1C (centres unmarked) | -37.9
CCC(c1nnc(SCC(=O)Nc2ccc(C(C)=O)cc2)n1C1CCCCC1)N(C)C (centres unmarked) | -9.96
CCC(C(=O)Nc1ccc(Cl)cc1)N1CCCC1=O (centres unmarked) | 2.42
O=C(COC(=O)c1ccc(F)c(S(=O)(=O)N2CCOCC2)c1)NC1CCCCC1 | -4.84
N#CCCNC(=O)Cn1c(COc2ccc(Cl)cc2)nc2ccccc21 | -24.5
Cc1ccc(NC(=O)c2ccccn2)c(Br)c1 | 19.8
CC1CC(C)(C)CC2(C1)NC(=O)N(CC(=O)OCc1ccc(Br)cc1)C2=O (centres unmarked) | 3.04
O=C(c1ccncc1)C12CN3CN(CN(C3)C1)C2 | 3.73
Cc1cccn2c(=O)c(/C=N/O)c(NCc3ccccc3)nc12 | 8.18
COC(=O)c1ccc(NC(=O)c2c(Br)cnn2C)cc1 | 11.8
CCCCC(CC(C)O)c1n[nH]c(=S)n1-c1ccccc1 (centres unmarked) | 3.1
Cc1ccc(NC(=O)CCCCCN2C(=O)[C@@H]3Cc4ccccc4CN3C2=O)c(Cl)c1 | -20.1
CCCCNC(=O)C1CCCN(S(=O)(=O)c2c(C)noc2/C=C/c2cccs2)C1 (centres unmarked) | -21.8

Compound | hERG current change (%, negative = inhibition) at 10uM [%]
CCOc1ccc(S(=O)(=O)NC(C)(C)C)cc1-c1nc2c(C(C)(C)C)nn(C)c2c(=O)[nH]1 | -3.83
CC(C)C(NC(=O)C(C)N1C(=O)c2ccccc2C1=O)c1ccccc1 (centres unmarked) | 12.2
CCc1cc(=O)oc2c(C)c(OC(C)C(=O)NCC3CCC(C(=O)O)CC3)ccc12 (centres unmarked) | 21.2
CC(CCc1ccccc1)NC(=O)C(=O)NCCc1ccccc1 (centres unmarked) | -0.47
COc1ccccc1CNc1ccc(CNc2ncn[nH]2)cc1 | 2.56
CCOC(=O)c1c(CSc2ccsc2)n(C)c2cc(Br)c(O)c(CN(C)C)c12.Cl | -84.2
COCCN=C1Sc2nc3ccc(C)cc3cc2CN1Cc1cccs1 | -11.1
Br.CC(C)(C)C(=O)Cn1c(NCCCO)nc2ccccc21 | -7.81
CCOC(=O)c1ccc(NC(=O)CN2C(=O)NC3(CCCCCC3)C2=O)cc1 | -4.28
C=CCSc1nnc(NC(=O)CN2C(=O)NC3(CCCC3)C2=O)s1 | 9.29
COc1ccc(C2CC(c3ccccc3)=NN2C(=O)c2cccs2)cc1 (centres unmarked) | -1.42
[Cl-].c1ccc(Cn2c[n+](Cc3ccccc3)cn2)cc1 | 5.26
CCN1CCN(CC(=O)Nc2cc3c(cc2C(C)=O)OCO3)CC1.O=C(O)C(=O)O | -8.04
CCN(CC)c1ccc(C(=O)NC(=S)Nc2cc(S(=O)(=O)N3CCOCC3)ccc2-n2cncn2)cc1 | -7.1
Cc1noc(C)c1COc1ccccc1C(=O)Nc1cccc(S(=O)(=O)N(C)C)c1 | -42.8
CNC(=O)c1cccnc1Nc1cccc(C(F)(F)F)c1 | -18.4
COc1cc(NC(=O)c2cccc([N+](=O)[O-])c2C)ccc1NC(=O)c1ccco1 | 6.87
Cc1ccc2c(c1)c(C)c(C)n2CC(O)Cn1nnc2ccccc21 (centres unmarked) | 1.76
COc1cccc(CNC(=O)C2CCCN(S(=O)(=O)c3c(C)noc3/C=C/N(C)C)C2)c1 (centres unmarked) | -18.1
Cc1ccc(C(=O)NC2CCN(Cc3ccccc3)CC2)cc1S(=O)(=O)N1CCOCC1 | -30.2
CC(=O)Nc1c2c(nn1-c1ccc(C)cc1)CS(=O)(=O)C2 | 19.1
Cc1cccc(-n2c(SCC(=O)N3CC(=O)Nc4ccccc43)nc3ccccc3c2=O)c1 | 9.48

Compound | hERG current change (%, negative = inhibition) at 10uM [%]
CCOc1ccc(-c2n[nH]c(=S)n2/N=C/c2cc3c(cc2[N+](=O)[O-])OCO3)cc1 | 10.9
Cc1nc(C)c(C(=O)NNS(=O)(=O)c2ccccc2)s1 | 8.26
O=C(CSc1nc2ccccc2[nH]1)c1c[nH]c2ccccc12 | 11.5
O=C(Nc1ccc(C(F)(F)F)cc1)N1CCN(c2ccnc3cc(Cl)ccc23)CC1 | -62.2
COc1ccccc1C(=O)NNC(=O)c1ccncc1 | 12.2
CC(C)OCCCNC(=O)c1cn(C)c2ccc(S(=O)(=O)N3CCCC3)cc2c1=O | 7.24
CC(=O)c1ccc(OC(C)C)c(CC(C(N)=O)C(N)=O)c1 | 9.72
Cc1ccc2[nH]c(-c3ccccc3)c(CN3CCN(C)CC3)c(=O)c2c1 | -9.94
Cc1ccc(N2CC(C(=O)Nc3nnc(SCC(=O)Nc4nc(C)cs4)s3)CC2=O)cc1 (centres unmarked) | 10.7
Cc1ccc(S(=O)(=O)N(C)C)cc1NC(=O)c1cc(-c2ccco2)nc2ccccc12 | 15.3
CSc1nc2ccccc2c(=O)n1N | 6.17
CCCc1cc(C(=O)Nc2ccc(F)c(Cl)c2)no1 | -5.83
Cc1ccc2cc(S(=O)(=O)NCCCC(=O)O)ccc2c1 | 7.37
C/C(=N\OCC(=O)Nn1c(=O)[nH]c2ccccc2c1=O)c1cccs1 | -10.9
Cn1c(=O)oc2cc(S(=O)(=O)N3CCCC(C(=O)N4CCc5ccccc5C4)C3)ccc21 (centres unmarked) | -24.9
COC(=O)c1cc(S(=O)(=O)NCCc2ccc(C)cc2)c[nH]1 | -9.92
Cc1cccc(C)c1NC(=O)C(NC=O)c1ccccc1Cl (centres unmarked) | 0.855
Cc1ccc(-c2cc(C(=O)N3CCN(c4ccccc4O)CC3)c3ccccc3n2)o1 | -70.9
Cc1cc(C(=O)OCC(=O)NC2CCS(=O)(=O)C2)c2ccccc2n1 (centres unmarked) | -14.5
C#CCOCCOCCOCCNc1nc(N2CCN(C(=O)CCCCCCCCCCNC(=O)[C@@H](CCSC)n3cc(CCO)nn3)CC2)nc(N2CCN(C(=O)CCCCCCCCCCNC(=O)[C@H]([C@@H](C)CC)n3cc(CCCCCN)nn3)CC2)n1 | -0.494
